Structures are written as SMILES.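 Results reflect a 48-hour exposure of cells in 96-well plates to compound at five concentrations. GI50 is the concentration that inhibits growth by half.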 Active and inactive are the calls of the source. Rule as the data show it: active = GI50 up to about 1.1 µM and inactive = higher.

In the test the test system is NCI-H322M. Kind of test: inhibition of tumour cell growth, NCI panel, 48 h.
Consider `COC1=CC(=O)C(O)=C(C[C@@]2(C)[C@@H]3CCC[C@H](COC(=O)CCCCCNC(=O)OC(C)(C)C)[C@@]3(C)CC[C@@H]2C)C1=O`, for which the GI50 is inactive: > 10 µM.
Take `S=C(CSc1ccccc1)Nc1cccc2ccccc12`: the GI50 was inactive: > 100 µM.
Consider `O=C(O)c1cccc(/[As]=[As]\c2cccc(C(=O)O)c2)c1` (configuration not stated), for which the GI50 is inactive: > 100 µM.
For `OCC1NCC(O)C(O)C1O` (configuration not stated), the GI50 is inactive: > 100 µM.
As for `Cn1c(=S)c2nc(SCCCc3ccccc3)[nH]c2n(C)c1=O`, the figure is inactive: 22 µM; as for `Cc1cc(NC(=O)NC(=O)c2ccccc2NC(=O)CN(C)C)ccc1Oc1ncc(Br)cn1`, inactive: 6.5 µM.
As for `C[C@@H](NC(=O)Cn1c(Cl)nc2ccccc21)c1ccccc1`, the figure is inactive: > 100 µM; as for `S=c1[nH]nc(Cn2c3ccc(Br)cc3c3nc4ccccc4nc32)o1`, inactive: 30.4 µM; as for `CC12CC1C(c1cccc([N+](=O)[O-])c1)(c1cccc([N+](=O)[O-])c1)N=N2` (configuration not stated), inactive: > 100 µM.
In the case of `COc1ccccc1NC(=O)C(CC(C(=O)Nc1ccccc1OC)/C(C)=N/NC(=O)c1ccccc1O)/C(C)=N/NC(=O)c1ccccc1O` (configuration not stated) it was inactive: 99.5 µM; in that of `Cc1nc2c(n1-c1ccc(Br)cc1)C(=O)c1ccccc1C2=O`, inactive: 17.4 µM.
As for `CC(CC(=O)CO[C@H]1[C@H](O)[C@@H](O)[C@@H](O)[C@@H]2NC(=O)c3c(cc4c(c3O)OCO4)[C@H]21)OC1OC(CO)C(O)C(O)C1O` (some centres not stated), the GI50 is active: 0.364 µM.
As to `CC(C)(C)c1ccc(OCCOCCOc2ccc(C(C)(C)C)cc2S(=O)(=O)Nc2ccc([N+](=O)[O-])cc2)c(S(=O)(=O)Nc2ccc([N+](=O)[O-])cc2)c1`, the GI50 was inactive: 31.3 µM.
As for `CC1=NN(C(=O)c2ccc(Cl)cc2)C(=O)/C1=C/c1c(O)cc(O)c2ccccc12`, the figure is inactive: > 100 µM; as for `Cc1ccc(S(=O)(=O)Nc2nc3ccccc3c(=O)n2C2CCCCC2)cc1`, inactive: 69.5 µM.
As to `Cc1cc(Br)cc(C)c1NC(=O)C(=O)C(C(=O)c1ccc2ccccc2c1)C1OC(=O)c2ccccc21` (configuration not stated), the GI50 was inactive: 6.22 µM.
As for `O=c1cc(CNC2CCCC2)[nH]c(=O)[nH]1`, the figure is inactive: > 100 µM; as for `CCCOP1(=O)C=C(O)C(Cl)=C(C)C1` (configuration not stated), inactive: > 100 µM.
In the case of `C=CC[N+]12CN3CN(CN(C3)C1)C2`, the GI50 was inactive: 19.4 µM.
As for `O=C(NNC(=S)Nc1ccc(Br)cc1)c1cc(-c2ccccc2)nc2ccccc12`, the figure is inactive: 24.3 µM; as for `O=C1CSC2(CC(/C=C/c3cccs3)=NN2c2cccc(S(=O)(=O)O)c2)N1c1nc2ccccc2s1` (configuration not stated), inactive: 92 µM; as for `O=C(/C=C(\Nc1ccccc1O)c1ccccc1)C(=O)NC12CC3CC(CC(C3)C1)C2`, inactive: > 10 µM.
Take `CC1=CC(c2ccccc2)OP1(=O)c1ccccc1` (configuration not stated): the GI50 was inactive: > 100 µM.
In the case of `COC1C(O)C(n2ncc3c(SC)nc(SC)nc32)OC1C(O)CO` (configuration not stated) it was inactive: > 100 µM.
In the case of `CCC(C(=O)O)c1ccc(OC)cc1` (configuration not stated) it was inactive: > 100 µM; in that of `COC(=O)c1cc(-c2ccc(OC)c(OC)c2)oc1-c1ccc(OC)c(OC)c1`, inactive: 48.5 µM.
Turning to `Fc1ccc(C(OCCN2CCN(CCCc3ccccc3)CC2)c2ccc(F)cc2)cc1`, the GI50 is inactive: 8.57 µM.
On to `Cc1ccc(S(=O)(=O)NC(=O)C2=C(c3ccccc3)[N-]N(C)c3nc4cccc[n+]4nc32)cc1`, for which the GI50 was inactive: > 100 µM.
Regarding `CC(C)(C)N1C(=O)c2ccccc2C1(O)C(F)(F)F` (configuration not stated), the GI50 is inactive: > 100 µM.
As for `O=[N+]([O-])C(=C1c2ccccc2-c2ccccc21)[N+](=O)[O-]`, the figure is inactive: > 100 µM; as for `CCOc1ccc(/C=C2/C(=O)N=C(N)N=C2N)cc1OCC`, inactive: > 100 µM.
With `Cc1ccc2c(c1)nc1n2C(c2c(F)cccc2F)SC1` (configuration not stated), the GI50 is inactive: 53.8 µM.
As for `CSc1nncc(-c2cc3c(c(SC)n2)CCC3)n1`, the figure is inactive: > 100 µM; as for `O=C1O[C@]2(c3ccccc3)C(c3ccccc3)=C[C@]2(C(=O)c2ccccc2)C1=O`, inactive: 47.2 µM.
For `CC(C)COP(=O)(OCC(C)C)C(NS(=O)(=O)c1ccccc1)(C(F)(F)F)C(F)(F)F`, the GI50 is inactive: 4.27 µM.
As for `CCc1nc(N)nc(N)c1-c1ccc2nnn(O)c2c1`, the figure is inactive: > 100 µM.
In the case of `CC(C)C1OC2(C)OC(=N)C1(C#N)C(C#N)(C#N)C2C` (configuration not stated) it was inactive: > 100 µM.
In the case of `COCP1(=S)OC(C)CCN1C(C)C` (configuration not stated), the GI50 is inactive: > 100 µM.
As for `COC1C=C(NCC2(CO)CCC2)N=C(N)N1` (configuration not stated), the figure is inactive: > 100 µM; as for `Cc1cccc(C)c1NC(=O)CCC(=O)/N=C(\N)NC#N`, inactive: > 100 µM.
With `O=C(O)C1=NN(c2ccc(S(=O)(=O)O)cc2)C2(C1)C(Cl)C(=O)N2c1nc2ccccc2s1` (configuration not stated), the GI50 was inactive: 20.2 µM.
As for `COC(=O)C1C=CCC2CCCCC21N1CCCC1` (configuration not stated), the figure is inactive: > 100 µM; as for `O=C1CC[C@@]2(O)[C@H]3Cc4ccc(-c5ccccc5)c5c4[C@@]2(CCN3CC2CC2)[C@H]1O5`, inactive: 22.8 µM.
Turning to `Cc1ccc2c(c1)C(=O)/C(=N/Nc1ccc(Cl)cc1)CCO2`, the GI50 was inactive: > 100 µM.
In the case of `COc1ccc(CN2C(=O)C(Cc3cc(OC)c(OC)c(C)c3OC)N(C(=O)OC(C)C)C(=O)/C2=C/c2cc(OC)c(OC)c(C)c2OC)cc1` (configuration not stated) it was inactive: 88.7 µM; in that of `C/C(=N/NC(=S)Nc1ccc(C)cc1)c1ccccn1`, active: < 0.0133 µM.
Regarding `O=C(O)C1(C(=O)O)CC1`, the GI50 is inactive: > 100 µM.
As for `O=C(NCCNCCNC(=O)C(F)(F)F)C(F)(F)F`, the figure is inactive: > 100 µM.
For the molecule `O=C(C[N+]12CN3CN(CN(C3)C1)C2)c1ccc(-c2ccccc2)cc1`, the GI50 is inactive: 23.2 µM.
Regarding `CC1=C(C)C2(C#N)C(=O)N3C(=NC(c4ccccc4)NC3c3ccccc3)C2(C#N)C(c2ccccc2)N1` (configuration not stated), the GI50 is inactive: > 100 µM.
For the molecule `CC(C)c1ccc(/C=C/c2cc(C(=O)NNC(=O)NC3CCCCC3)nc(S)n2)cc1`, the GI50 was inactive: > 100 µM.
As for `CC(=O)c1c2c(cc3c1CCC3)CCC2`, the figure is inactive: > 100 µM; as for `Cc1c(-c2coc(-c3ccc(Cl)cc3)n2)c(=O)n(-c2ccccc2)n1C`, inactive: > 100 µM.
As for `CCNc1cc2c3c(c1)CCCN3CCC2`, the GI50 is inactive: 17.5 µM.
In the case of `CC1CCOc2ccc(cc2)/C=N\c2ccc(cc2)CCc2ccc(cc2)/N=C\c2ccc(cc2)OCC1` it was inactive: > 100 µM.
`CCCCCCC(C)c1ccc2c(c1)C(=O)c1nc3ccncc3c(=O)n1-2` (configuration not stated): the GI50 is inactive: 3.44 µM.
As for `COc1ccc2c(c1)/C(=C/CCN(C)C)c1ccccc1S2`, the figure is inactive: > 100 µM.
On to `O=C(NC1C2CC3CC(C2)CC1C3)c1ccncn1` (configuration not stated), for which the GI50 was inactive: > 100 µM.
As for `CCOP(=O)(/C=C/n1ccc(=O)[nH]c1=O)OCC`, the figure is inactive: > 100 µM; as for `CCOC(=O)N1C=CC(=C2C(=C3C=CN(C(=O)OCC)C=C3)C(=C3C=CN(C(=O)OCC)C=C3)C2=C2C=CN(C(=O)OCC)C=C2)C=C1`, inactive: 17.5 µM; as for `O=C(NNC(=S)NC1CCCCC1)c1csc(NC(=S)NC2CCCCC2)n1`, inactive: 7.59 µM.
`CC(=O)c1sc2[n+](c1C)C(=O)/C(=C\c1ccccc1Cl)S2`: the GI50 is inactive: 35.5 µM.
For the molecule `CC1(c2ccc(Cl)cc2)N=C(NCCO)c2ccccc21` (configuration not stated), the GI50 is inactive: 17.7 µM.
Consider `c1ccc2c(c1)-c1ccccc1C2N1CC2CCC(CC2)C1`, for which the GI50 is inactive: 30.5 µM.
Consider `COc1cc(C2c3cc4c(cc3OC(NCCO)C2C)OCO4)cc(OC)c1OC` (configuration not stated), for which the GI50 was active: 0.225 µM.
As for `COc1ccccc1CCN1CCN(CCCc2ccccc2)CC1`, the GI50 was inactive: > 100 µM.
As for `COc1ccc(C2C(C(=O)c3ccccc3)=C(O)C(O)(CC(=O)c3ccccc3)N2c2ccc(OC)cc2)cc1` (configuration not stated), the figure is inactive: 29.6 µM; as for `CCN(CC)CC(C(=O)Nc1c(C)cccc1C)/C(C)=N\NC(=S)NN` (configuration not stated), inactive: > 100 µM; as for `CC1C(=O)C(C)C(c2cccs2)N(N=O)C1c1cccs1` (configuration not stated), inactive: > 100 µM.
In the case of `Cc1ccccc1-c1cc(=O)c2cc(C)c(C)c(C(=O)O)c2o1` it was inactive: > 100 µM.
With `C(#C[C@@]12CCC[C@@H]1NCO2)c1ccc2c(c1)OCO2`, the GI50 was inactive: 81.5 µM.
As to `O=C1CC(c2ccccc2)n2cccc21` (configuration not stated), the GI50 is inactive: > 100 µM.
As for `O=C(O)C1OC1C(=O)O` (configuration not stated), the figure is inactive: > 100 µM; as for `COc1cc(/N=N\c2cccc(S(=O)(=O)O)c2)ccc1/N=N\c1ccc(/C=C/c2ccc(-n3on3-c3ccc(/C=C/c4ccc(/N=N/c5ccc(/N=N\c6cccc(S(=O)(=O)O)c6)cc5OC)cc4S(=O)(=O)O)c(S(=O)(=O)O)c3)cc2S(=O)(=O)O)c(S(=O)(=O)O)c1`, inactive: > 100 µM.
As for `CC(=O)C(C)C(=O)N1C(=O)N(C)C2(C)N(C)C(=O)NC12C` (configuration not stated), the figure is inactive: > 100 µM.
In the case of `Clc1cc2nc[nH]c2cc1Cl` it was inactive: > 100 µM; in that of `CCc1nc(N)nc(N)c1-c1ccc(NCCc2ccccc2)c([N+](=O)[O-])c1`, inactive: 1.79 µM; in that of `CC(C)CCC[C@@H](C)C1CCC2[C@@H]3CCC4C[C@@H](NS(C)(=O)=O)CC[C@]4(C)C3CC[C@@]21C` (some centres not stated), inactive: > 100 µM.
In the case of `COc1ccc(Cl)cc1NC(=O)c1cccc([N+](=O)[O-])c1O`, the GI50 was inactive: 20.4 µM.
In the case of `CCOc1ccc2nc(-c3ccc(O)cc3)sc2c1` it was inactive: > 100 µM.
As for `CCCOc1ccc(/C=C/c2cc(OC)c(OC)c(OC)c2)cc1`, the figure is active: 0.483 µM; as for `COc1ccc(/C=C/c2cc(OC)c(O[Si](C)(C)C(C)(C)C)c(OC)c2)cc1`, inactive: > 100 µM.

The values above are taken from ChEMBL document CHEMBL1201862, “PubChem BioAssay data set” (2004).
